Source: PubChem BioAssay AID504832 (National Center for Advancing Translational Sciences (NCATS), 2011)
Among all 310,000 compounds or so, about 18,000 (5.8%) were called active. Inconclusive means that the source gave no clear call. Such entries were picked first, then a sample of the others. Calls follow the shape of the dose curve; as a rule, active = well fitted inhibition curve with a large enough effect; inconclusive = small, poorly fitted or top-dose-only effect, or another doubt; inactive = no such curve, though single readings can be large or run the other way. No potency is given beside an inconclusive call; the fits are too rough.

Assay: Primary qHTS for delayed death inhibitors of the malarial parasite plastid, 48 hour incubation
Conditions: P. falciparum luciferase growth in erythrocytes; series mostly up to 28.7 µM; activity change, negative = inhibition: at the top concentration
In short: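 Compounds are pin-transferred into medium, infected erythrocytes (2% hematocrit, 0.1% parasitemia final) are added, and plates sit one parasite generation at 37 C in 5% CO2. Detection reagent is then added and luminescence measured.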
% is scaled to controls: 0 for no effect and ±100 for the full control effect; potency is read from the fitted curve at half-maximal effect; tags tell the direction and shape of the fitted curve.

SMILES | Potency | activity change, negative = inhibition
C=CCOC(=O)C1=C(C)NC(=S)C(C#N)(CC=C)C1c1ccccc1Cl (configuration not stated) | active: 1.47 µM | –
Cc1cccc(C)c1NC(=O)COc1ccc2c(C)c(Cc3ccccc3)c(=O)oc2c1C | – | inactive: -27.2%
O=C(NCC1CCCO1)c1ccc(Cl)c(F)c1F (configuration not stated) | – | inactive: 19.7%
O=C(O)c1nn(-c2ccccc2-c2n[nH]c(=O)[nH]c2=O)c(=O)[nH]c1=O | – | inactive: 30.1%
COC(=O)C1=C(c2ccc(C(C)=O)cc2)C[C@@H]2CC[C@H]1N2C(=O)N1CCCCC1 | inconclusive [inhibitor, single point] | –
O=C(OCc1ccc2c(c1)OCO2)c1ccc(S(=O)(=O)N2CCCCC2)cc1 | inconclusive [inhibitor, partial curve, poor fit] | –
Cc1ccc(C)c(CN2C(=O)C3CCCN3c3ccc(C#N)cc32)c1 (configuration not stated) | inconclusive [inhibitor, partial curve] | –
CC1CN(C2CCN(C(=O)c3ccccc3Cl)CC2)CC(C)O1 (configuration not stated) | – | inactive: -3.08%
O=c1[nH]c(=O)n(Cc2ccco2)c(O)c1/C=N/N1CCCCC1 | – | inactive: 8.28%
CCOC(=O)c1ccccc1NC(=O)c1ccccc1SC | inconclusive [inhibitor, single point] | –
CCOc1ccccc1NC(=O)c1cnccn1 | inconclusive [inhibitor, full curve, poor fit] | –
Cc1cc(C)cc(-n2c(C)nc3cc(C(=O)O)ccc32)c1 | – | inactive: 22.4%
Cc1ccc(COC(=O)c2cccc(S(=O)(=O)N3CCCCC3)c2)cc1 | inconclusive [inhibitor, single point] | –
NC(=S)N/N=C1\CC(n2nnn(-c3cccc(Cl)c3)c2=S)C2COC1O2 (configuration not stated) | – | inactive: 1.11%
COc1ccc(NC(=O)c2csc3c2CCCCC3)c(OC)c1 | – | inactive: -18.9%
CC(=O)c1ccc(NC(=O)CCc2c(C)nn(-c3ccc(N4CCOCC4)nn3)c2C)cc1 | – | inactive: 33.9%
COC(=O)c1ccc(NC(=O)Cn2nc(-c3ccncc3)nc2SCC(=O)Nc2nccs2)cc1 | inconclusive [inhibitor, single point] | –
Cc1nc(N2CCN(Cc3ccccc3)CC2)nc2c1C(=O)CC(C)C2 (configuration not stated) | – | inactive: 0%
CCc1ccccc1-n1c(SCC(=O)c2c(N)n(C3CC3)c(=O)[nH]c2=O)nnc1N1CCOCC1 | – | inactive: -10%
CC12CCC(c3c1nc1ccccc1[n+]3[O-])C2(C)C (configuration not stated) | – | inactive: -9.06%
O=c1c2ccccc2c(-c2ccccc2)nn1-c1ccccc1 | inconclusive [inhibitor, single point] | –
CC(=O)c1sc2c(c1OC(=O)c1ccc(Cl)cc1Cl)c(=O)n(-c1ccccc1)c(=S)n2-c1ccccc1 | inconclusive [inhibitor, full curve, poor fit] | –
